# Measured values taken from article PMC12136788.
# Some of the results follow.
# B1: chr2:32508095:32508220:+|CDS|ENSG00000115760|unk|total|mutant (ssRNA)
# RNA: GGGAGUUCUACAGUCCGACGAUCAGCCGAAGCCGCUUCUGCUGUCUGCCUCCGACUACAUCGUCCACGGGAUGCCAGCACAUCCGGCCUUUCACAAAUUAAAUUAUUGGGGCUCACUGCUUUUGGUACCACCUCUUCUGCAACCAACAGAGGAUUGAGCAUCA
# B2: ENSG00000131370:stop:overlap|stop_codon|ENSG00000131370|stop_codon|NA|stop_codon (ssRNA)
# RNA: GGGAGUUCUACAGUCCGACGAUCAGAAGUUAAAUCAGUCCACGGAUGAUAUCAACAGACGGGAGACUGAACUUGAGGUCCAGUAGGUGUUUGCAGAUCCCUUCUUAAGCCUCAACUGUGUUUCCUCGGUUUCCCCUGGCUGCACAACAGAGGAUUGAGCAUCA
# B3: ENSG00000100994:stop:overlap|stop_codon|ENSG00000100994|stop_codon|NA|stop_codon (ssRNA)
# RNA: GGGAGUUCUACAGUCCGACGAUCAGAUCUGGGGUGUGGAGCCCUCCGACCUGCAGAUCCCGCCCCCCAACAUCCCCCGGGACUAGGCACACCCUGCCUUGGCGGGACCAGCGGGCAUUUGUUUUCUUGCUGACUUUGCACCUCCAACAGAGGAUUGAGCAUCA
# B4: chr7:94910433:94910544:+|CDS|ENSG00000158528|unk|total|mutant (ssRNA)
# RNA: GGGAGUUCUACAGUCCGACGAUCCUGGAAAAAACAGAUGGCUCAGUUGUUAAGUUGGAGUCUUCUGUUUCUGAACGAAUCCGCCGAUUUGACACUAUGUACGAUGGCCCUUCAUAUUCCAAGUUCACUGAGACUCGAAAGAUGCAACAGAGGAUUGAGCAUCA
# B5: chr7:74121655:74121756:+|3pUTR|ENSG00000106683|msi1|total|mutant (ssRNA)
# RNA: GGGAGUUCUACAGUCCGACGAUCGCCCCUUUCCACACGCCGCUGCCCCAGCAACCCUGUUCACGCUCCACCUGUCUGGUCCACCGCUCCCUGGAGGCUGGGCCAGGAGGCAGCCUCCGAACCAUGCCCCAUAUAACGCUUGGGCAACAGAGGAUUGAGCAUCA
# B6: chr1:246839951:246840052:-|3pUTR|ENSG00000153207|msi1|FALSE|bound_elsewhere (ssRNA)
# RNA: GGGAGUUCUACAGUCCGACGAUCAAAUGUAAAAUAAAUCUGUUUAUGGAUAUUGAGUGCAUCUUGUAUGUGCCUAAUAUUGAUAGGAUGAGAUGUCUGAACAAAUUUUUAUAAUAUUGCUGUGAAGGAGCUUGCUAUUGAACCCAACAGAGGAUUGAGCAUCA
# B7: ENSG00000170522:stop:overlap|stop_codon|ENSG00000170522|stop_codon|NA|stop_codon (ssRNA)
# RNA: GGGAGUUCUACAGUCCGACGAUCUCUGCCAUUUCUUCUUUGAGGCCUACAUCGGCAAAAUGAGGAAAACAACGAAAGCUGAAUAGUGUUGGAACUGAGGAGGAAGCCAUAGCUCAGGGUCAUCAAGAAAAAUAAUAGACAAAACAACAGAGGAUUGAGCAUCA
# B8: chr1:45660537:45660647:-|5pUTR|ENSG00000159592|unk|total|mutant (ssRNA)
# RNA: GGGAGUUCUACAGUCCGACGAUCAUUUUUGAUCUAUUACCUUGAUGACAUUAUUUGUCCACACUUGAGCCCAUCUGUCUUUCCCGCUAUGACCUUGUUAUGAACAGUAUUUGCACUCGGUGCAAAUAUCCAUGUCUUACCUAACAACAGAGGAUUGAGCAUCA
# B9: chr19:45795712:45795987:-|three_prime_utr|ENSG00000104941|control|control|control (ssRNA)
# RNA: GGGAGUUCUACAGUCCGACGAUCGAGGAGGAGGGCGAGGAGGAGGAGGAGGGCGAGGAGACAGAUGACUGAGGCCCACCCUCUAGCCACUUUCCCCAAGCAGGUAGAUAGCAAAUUUCCCCUUAGAGGUAGUUAGCAUGGAUUCAACAGAGGAUUGAGCAUCA
# B10: chr13:20822168:20822271:-|CDS|ENSG00000132953|unk|total|mutant (ssRNA)
# RNA: GGGAGUUCUACAGUCCGACGAUCUCGAAAAAUCAGAGAAGAUUCAGAUAUGGCACAAGAUUCUCUGCAGUGCCUUGCCCAGUCCGCUUCUCUUCAUGGACCCAUCUUCCCAGAUGAAGGAUCACAAGUUGAUUAUCCCGCACACAACAGAGGAUUGAGCAUCA
# B11: chr2:147927148:147927248:+|CDS|ENSG00000121989|msi1_unk|total|mutant (ssRNA)
# RNA: GGGAGUUCUACAGUCCGACGAUCUGAAACCAUUGAAGAAUGUUGGGAUCACGACGCAGAAGCCAGGUUAUCAGCUGGAUGUGCCGGUGAAAGAAUUACCCAGAUGCAGAGACUAACAAAUAUUAUUACCACAGAGGACAUUGUCAACAGAGGAUUGAGCAUCA
# B12: chr1:45640296:45640398:-|CDS|ENSG00000159592|unk|FALSE|unique (ssRNA)
# RNA: GGGAGUUCUACAGUCCGACGAUCCUCUCCACUCUUGUACUUCACAGAAAACCCGCCUAGUGCCAAGCAACCCUCCAAGAUGCUAGUUAUCAAAAAAGUUUCCAAAGAGGAUCCUGCUGCUGCCUUCUCUGCUGCAUUCACCUCCAACAGAGGAUUGAGCAUCA
# B13: chr6:42224930:42228669:-|three_prime_utr|ENSG00000124496|control|control|control (ssRNA)
# RNA: GGGAGUUCUACAGUCCGACGAUCUGAUCAAGAUUCAGUCUUGCUUCAGGGUGACGCAGAACUAUAAAGCCCUGUGUGUCACUUAGAGACAGUGAAAACCCACGGCCUCCAUCUUCAUUAAUCAGGAAACCUGGACUGCCUGCUCAACAGAGGAUUGAGCAUCA
# B14: chr2:46903789:46903890:-|3pUTR|ENSG00000180398|msi1|FALSE|unique (ssRNA)
# RNA: GGGAGUUCUACAGUCCGACGAUCAAAUUUCUGCAGCUGGCUUGAAUUUCUCCCCAGAAAAUGGGUUUUUCUUUUCUAUUGCAUAGUCAGGCUGCAAAUUUCCAAACUUUUAUGCUUUGCUUCCCUUAUUUAUAAGGGAAUGCCCAACAGAGGAUUGAGCAUCA
# Molecular target: MSI1 full-length (mouse, UniProt Q61474 1-362)
# Test: nsRBNS (natural sequence RNA bind-n-seq); RBNS binding buffer (assumed for nsRBNS): 25 mM Tris pH 7.5, 150 mM KCl, 3 mM MgCl2, 0.01% Triton X-100, 500 ug/ml BSA, 20 U/ml SUPERase-In, 4 C; UNK is unkempt and MSI1 is Musashi-1; names of the RNAs are library labels; protein concentration not given here; high values mean tight binding
# Sequence of UniProt Q61474 (Q61474 whole entry): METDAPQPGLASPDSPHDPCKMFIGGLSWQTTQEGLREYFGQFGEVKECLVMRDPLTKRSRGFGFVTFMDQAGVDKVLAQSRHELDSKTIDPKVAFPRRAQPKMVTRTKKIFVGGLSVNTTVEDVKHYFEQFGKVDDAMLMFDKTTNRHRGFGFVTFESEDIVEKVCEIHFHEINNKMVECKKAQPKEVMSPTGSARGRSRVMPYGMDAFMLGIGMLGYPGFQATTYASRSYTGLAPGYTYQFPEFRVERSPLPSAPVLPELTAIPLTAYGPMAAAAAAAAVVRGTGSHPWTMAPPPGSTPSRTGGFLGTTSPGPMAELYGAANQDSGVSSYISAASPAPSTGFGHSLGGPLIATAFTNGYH
row,Binder,binding signal [enrichment R]
1,B1,0.39
2,B2,0.475
3,B3,0.425
4,B4,0.407
5,B5,1.03
6,B6,0.429
7,B7,0.371
8,B8,0.281
9,B9,6.43
10,B10,0.303
11,B11,0.944
12,B12,0.734
13,B13,0.348
14,B14,0.47
